Structures are written as SMILES. Screen size: about 310,000 compounds; about 14,000 (4.5%) showed an effect of 50% or more. The effect is printed as a negative number. The list shows a part of the results.
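Note: peak tail current of the secondary pulse compared with the same well before compound.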

Sequence of human ether-à-go-go-related gene (hERG) potassium channel (Q12809 whole entry, looked up): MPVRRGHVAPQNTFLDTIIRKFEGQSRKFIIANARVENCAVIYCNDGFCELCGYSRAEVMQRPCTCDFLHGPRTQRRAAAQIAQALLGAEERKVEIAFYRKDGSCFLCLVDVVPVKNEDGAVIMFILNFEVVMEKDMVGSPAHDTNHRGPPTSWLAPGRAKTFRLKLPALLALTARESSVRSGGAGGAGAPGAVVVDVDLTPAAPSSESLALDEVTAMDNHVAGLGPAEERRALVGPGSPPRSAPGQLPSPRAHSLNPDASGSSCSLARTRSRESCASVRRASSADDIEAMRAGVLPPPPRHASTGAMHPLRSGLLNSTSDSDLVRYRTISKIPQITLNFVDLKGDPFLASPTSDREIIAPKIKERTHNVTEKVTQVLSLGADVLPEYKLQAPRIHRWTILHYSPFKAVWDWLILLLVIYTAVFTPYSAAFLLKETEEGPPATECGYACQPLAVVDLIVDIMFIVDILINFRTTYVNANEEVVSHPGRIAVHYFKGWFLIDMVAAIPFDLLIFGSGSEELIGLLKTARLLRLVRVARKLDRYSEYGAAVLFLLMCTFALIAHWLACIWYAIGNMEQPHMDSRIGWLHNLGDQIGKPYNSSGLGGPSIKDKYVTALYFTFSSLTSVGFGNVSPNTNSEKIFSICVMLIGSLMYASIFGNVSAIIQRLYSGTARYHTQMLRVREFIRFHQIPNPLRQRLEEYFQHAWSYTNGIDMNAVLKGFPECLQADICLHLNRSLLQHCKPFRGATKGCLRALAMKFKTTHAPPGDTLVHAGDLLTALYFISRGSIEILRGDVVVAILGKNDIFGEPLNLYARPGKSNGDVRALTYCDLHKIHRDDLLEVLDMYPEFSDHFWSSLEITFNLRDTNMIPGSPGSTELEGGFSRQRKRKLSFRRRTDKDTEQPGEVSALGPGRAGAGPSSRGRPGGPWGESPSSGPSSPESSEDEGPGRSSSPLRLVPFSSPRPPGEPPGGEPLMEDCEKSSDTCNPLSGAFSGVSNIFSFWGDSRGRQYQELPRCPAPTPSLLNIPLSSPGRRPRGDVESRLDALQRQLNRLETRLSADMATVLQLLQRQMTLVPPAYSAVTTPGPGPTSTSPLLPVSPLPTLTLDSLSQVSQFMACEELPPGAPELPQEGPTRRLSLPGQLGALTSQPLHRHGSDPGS

The experiment has as its target human ether-à-go-go-related gene (hERG) potassium channel (human, UniProt Q12809). The experiment in a line: primary screen, population patch clamp on CHO cells stably expressing hERG.
Take `COc1ccc(CN(C(=O)c2oc3ccccc3c2C)C2CCS(=O)(=O)C2)cc1` (stereo not drawn): the “hERG current change (%, negative = inhibition) at 10uM” value is reported as -31.5%.
Regarding `O=C(COc1ccccc1)N(Cc1ccco1)c1ccc(O)cc1`, the “hERG current change (%, negative = inhibition) at 10uM” value is -3.88%.
Next, `Cc1cccc(NS(=O)(=O)c2ccc([N+](=O)[O-])cc2)n1`: -15.2%; `Cc1cc(/C=C2/SC(=S)N(c3ccc([N+](=O)[O-])cc3)C2=O)c(C)n1-c1cccnc1`: 15.5%; `[O-]/[N+](=C/c1ccc(F)cc1)c1ccc(Cl)cc1`: 5.77%.
Turning to `Cc1ccc(-n2c(Cc3cccn3C)nnc2SCC(=O)Nc2ccc3c(c2)OCO3)cc1`, the “hERG current change (%, negative = inhibition) at 10uM” value is reported as -23.8%.
On to `O=C(CCC(=O)c1ccccc1)NCCc1c[nH]c2ccccc12`, for which the “hERG current change (%, negative = inhibition) at 10uM” value was -0.0564%.
As to `CCOC(=O)CN1C(=N)N(c2nc(NC(C)C)nc(OC)n2)CC1=O`, the “hERG current change (%, negative = inhibition) at 10uM” value was -13.1%.
Regarding `O=S(=O)(c1ccccc1)N1CCN(c2nnnn2-c2ccccc2)CC1`, the “hERG current change (%, negative = inhibition) at 10uM” value is on record as -3.96%.
With `O=S(=O)(c1ccccc1OC(F)(F)F)N1CCN(c2ccnc3cc(Cl)ccc23)CC1` the figure was -18.4%; with `CC(C(=O)c1ccccc1)[n+]1cccc(Br)c1.[Br-]` (stereo not drawn), -1.52%.
Next, `CC(C)(C)C(=O)Nc1ccc(F)cc1[N+](=O)[O-]`: 5.56%; `Cl.N=c1ccn(Cc2ccc(Cl)cc2)cc1`: -2.86%.
Next, `CSc1cccc(NC(=O)CC2Oc3ccccc3NC2=O)c1` (stereo not drawn): 6.18%.
Regarding `Cc1cc(=O)n2nc(N3CCC(C(=O)N4CCN(C)CC4)CC3)sc2n1`, the “hERG current change (%, negative = inhibition) at 10uM” value is 17.5%.
With `Oc1cccc2ccc(Nc3ccccn3)nc12` the figure was -53.6%; with `CCc1ccc(NC(=O)CSc2nnc(CNC(=O)c3cccs3)o2)cc1`, -3.67%.
With `CCCCNC(=O)Cn1c(=O)n(C)c2ccccc21` the figure was 17.3%.
Regarding `O=C(N1CCOCC1)N1CCC(c2nc(-c3ccc(S(=O)(=O)N4CCOCC4)cc3)no2)CC1`, the “hERG current change (%, negative = inhibition) at 10uM” value was -2.07%.
Next, `COc1ccc(-n2c(SCC(C)=O)nc3sc(C)c(C)c3c2=O)cc1`: 22.1%; `COc1ccc(CC(=O)NNC(=O)c2ccncc2)cc1`: 29.1%.
On to `CCCC(C(=O)NC1CCCC1)N(Cc1ccc(OC)cc1)C(=O)c1snc(C(N)=O)c1N` (stereo not drawn), for which the “hERG current change (%, negative = inhibition) at 10uM” value is -29.3%.
Next, `CC(C)CN(C(=O)COC(=O)c1ccc(Br)o1)c1c(N)n(Cc2ccccc2)c(=O)[nH]c1=O`: 13%; `O=c1c2cc(NC(=S)N3CCCCC3)ccc2nc2n1CCCCC2`: -55.7%.
Next, `CCN=C1SC(CC(=O)NC2CCCCC2)C(=O)N1CC` (stereo not drawn): 3.06%; `CCC1=Nc2cc(C(=O)NCCN3CCCC3)ccc2Sc2ccc(C)cc21`: -29%; `COC(=O)C(NC(C)=O)(Nc1nc2ccc(S(C)(=O)=O)cc2s1)C(F)(F)F` (stereo not drawn): 18.2%.
With `O=C(CSc1n[nH]c(-c2ccc(S(=O)(=O)NC3CCCCC3)cc2)n1)N1CCCC1` the figure was -11.4%; with `COCCn1nnnc1C(c1cc2c(C)cc(C)cc2[nH]c1=O)N1CCCCCC1` (stereo not drawn), -0.0829%; with `O=C1CCc2cc(S(=O)(=O)N3CCCCC3)cc3c2N1CC3`, 14.5%.
For `Cc1cccc(OCCC(=O)NCC(=O)Nc2c(C)cccc2C)c1`, the “hERG current change (%, negative = inhibition) at 10uM” value worked out at 6.41%.
With `Cc1ccc(C)c(OCCn2cc(C(=O)O)c3ccccc32)c1`, the “hERG current change (%, negative = inhibition) at 10uM” value is given as 3.66%.
With `COc1ccc(C(=O)CSc2nnc(CNC(=O)c3ccccc3F)n2C)cc1OC` the figure was 19.2%; with `Cc1ccc(S(=O)(=O)N(C)c2c(C)ccc(S(=O)(=O)N3CCN(C)CC3)c2C)cc1`, -60.8%; with `COc1ccc(C(=O)OCC[N+]2(C)CCOCC2)cc1.[I-]`, 13.6%.
With `Oc1c(C(c2cccs2)N2CCN(c3ccc(F)cc3)CC2)sc2ncnn12` (stereo not drawn) the figure was -66%; with `O=c1cc(-c2cccs2)oc2ccc(Cl)cc12`, 4.48%.
Next, `CCN1CCN(Cc2ccc(NC(=O)c3cc(NC(=O)c4cc(-c5ccc(OC)cc5)n[nH]4)cc(OC)c3)cc2C(F)(F)F)CC1`: 11.9%; `O=C(Nc1ccccc1N1CCOCC1)c1cccnc1`: 15%.
`O=[N+]([O-])c1cc(Cl)c2cccnc2c1O`: the “hERG current change (%, negative = inhibition) at 10uM” value is 4.37%.
In the case of `COc1cccc(C2N(c3ccccn3)C(=O)C3CCCN32)c1OC` (stereo not drawn), the “hERG current change (%, negative = inhibition) at 10uM” value is on record as 12.2%.
Regarding `Cc1ccc(COC(=O)c2cccc(S(=O)(=O)N3CCCCCC3)c2)cc1`, the “hERG current change (%, negative = inhibition) at 10uM” value is reported as -16.4%.
As to `CCn1nnnc1SCC(=O)c1cc(Cl)ccc1OC`, the “hERG current change (%, negative = inhibition) at 10uM” value was determined as 7.87%.
As to `O=C(Cc1cccs1)Nc1cc(SCCO)cc([N+](=O)[O-])c1`, the “hERG current change (%, negative = inhibition) at 10uM” value is -14.9%.
With `CCOc1ccc(N2CC(C(=O)Nc3ccccc3C(=O)NC3CC3)CC2=O)cc1` (stereo not drawn) the figure was -76.7%.

(Values after paper PMC4336329 (PLoS ONE, 2015).)
